{"source": "PubChem BioAssay AID894", "about": "(National Center for Advancing Translational Sciences (NCATS), 2007)", "note": "The campaign covered roughly 150,000 compounds. About 6,500 (4.3%) were called active. This list was built around the results that the source calls inconclusive (neither active nor inactive); the mix of calls is not that of the screen. The call rests on the fitted dose curve; in most records, active means well fitted inhibition curve with a large enough effect (not every such curve was filed as active); inconclusive means small, poorly fitted or top-dose-only effect, or another doubt; inactive means no such curve, though single readings can be large or run the other way. No potency is given beside an inconclusive call; the fits are too rough. On the % scale 0 is the no-effect control and ±100 the full control effect; potency means the concentration at half of the fitted maximal effect; tags describe the fitted curve by direction and shape.", "data": [{"biological_target": "15-hydroxyprostaglandin dehydrogenase [NAD(+)] (Homo sapiens) (UniProt P15428)", "sequence (P15428 whole entry, looked up)": "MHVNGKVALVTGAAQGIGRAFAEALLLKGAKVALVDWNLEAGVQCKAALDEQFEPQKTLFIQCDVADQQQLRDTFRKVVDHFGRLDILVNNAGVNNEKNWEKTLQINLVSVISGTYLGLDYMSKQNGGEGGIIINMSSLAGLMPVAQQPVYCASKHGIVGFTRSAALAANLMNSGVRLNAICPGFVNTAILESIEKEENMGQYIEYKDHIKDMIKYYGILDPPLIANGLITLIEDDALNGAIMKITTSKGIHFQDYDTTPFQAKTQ", "assay": "qHTS Assay for Inhibitors of HPGD (15-Hydroxyprostaglandin Dehydrogenase)", "conditions": "purified HPGD, NADH fluorescence kinetic, PGE2 substrate; activity change, negative = inhibition: hits give low values", "method_in_brief": "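20 nM HPGD preincubated 15 min at room temperature with compound in 50 mM Tris-HCl pH 8, 0.01% Tween 20. Started with 1 mM NAD+ and 30 uM prostaglandin E2; NADH fluorescence (360/450 nm) read 5 times over 30-s intervals, last minus first.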", "values": [{"smiles": "Cc1nn2c(-c3ccc(Cl)cc3Cl)nnc2s1", "Potency": "inconclusive [inhibitor, single point]"}, {"smiles": "CC(C)CC(=O)N1CCN(Cc2cccc(F)c2)CC1", "activity change, negative = inhibition": "inactive: -15.3%"}, {"smiles": "C=CCNC(=O)c1ccc(-c2nc(-c3ccc(Cl)cc3Cl)cs2)cc1", "Potency": "active: 3.98 µM"}, {"smiles": "CCOc1ccccc1C(=O)N1CCN(c2cccc(Cl)c2)CC1", "activity change, negative = inhibition": "inactive: -2.98%"}, {"smiles": "CCN(CC)S(=O)(=O)c1ccc(N2CCOCC2)c(NC(=O)c2c3c(nc4ccccc24)CCC3)c1", "activity change, negative = inhibition": "inactive: -0.601%"}, {"smiles": "COc1ccc(-n2c(-c3cccc(C)c3[N+](=O)[O-])n[nH]c2=S)cc1", "Potency": "active: 35.5 µM"}, {"smiles": "COc1cccc(-c2nn3c(-c4ccccn4)nnc3s2)c1", "Potency": "active: 31.6 µM"}, {"smiles": "Cc1cn([C@H]2C=C[C@@H](CO)O2)c(=O)[nH]c1=O", "activity change, negative = inhibition": "inactive: -6.31% [middle of 5 runs]"}, {"smiles": "CCOc1ccc(C2OC34CCCCC3C(C#N)(C#N)C2(C#N)C(=N)O4)cc1OC", "note": "(stereo unspecified)", "Potency": "inconclusive [inhibitor, partial curve]"}, {"smiles": "Cc1ccc(N2CCCn3c2cc(C)c(C#N)c3=O)cc1Cl", "Potency": "inconclusive [inhibitor, partial curve]"}, {"smiles": "CC(=C/c1ccco1)/C=N/NC(=O)CSc1nnc(SCc2ccc(C)cc2)s1", "Potency": "inconclusive [inhibitor, single point]"}, {"smiles": "COCCN1C=C(C(=O)OC)C(c2cc3c(cc2Br)OCO3)C(C(=O)OC)=C1", "Potency": "inconclusive [inhibitor, partial curve]"}, {"smiles": "Cc1ccccc1-c1nc2ccccc2c(=O)n1/N=C/c1ccccc1[N+](=O)[O-]", "Potency": "active: 22.4 µM"}, {"smiles": "CC(=O)O[C@@H]1C(CO[Si](C)(C)C(C)(C)C)=C(Br)C(=O)[C@@H]2O[C@]12C", "Potency": "inconclusive [inhibitor, single point]"}, {"smiles": "FC(F)(F)c1nc(-c2cccnc2)ncc1-c1nnnn1-c1ccccc1", "activity change, negative = inhibition": "inactive: -10.6%"}, {"smiles": "Cc1nn(CC(=O)Nc2ccc(Cl)cn2)c(C)c1Br", "activity change, negative = inhibition": "inactive: -5.06%"}, {"smiles": "CCOC(=O)c1c(C)[nH]c(C=Nc2ccccc2)c1O", "Potency": "inconclusive [inhibitor, single point]"}, {"smiles": "CN1CCN(c2ncc3nc(CCc4ccccc4)c(=O)n(CCC#N)c3n2)CC1", "Potency": "inconclusive [inhibitor, partial curve]"}, {"smiles": "CCOc1ccc(/C=N/Nc2cc(=O)n(C)c(=O)n2C)cc1", "Potency": "inconclusive [inhibitor, partial curve]"}, {"smiles": "COc1cc(C2C(C#N)=C(N)Oc3cc(C)oc(=O)c32)cc2c1OCO2", "note": "(stereo unspecified)", "Potency": "inconclusive [inhibitor, partial curve]"}, {"smiles": "O=C(c1cc(-c2ccccc2)on1)N1CCCC1", "Potency": "inconclusive [inhibitor, partial curve]"}, {"smiles": "COc1ccc(C2CC(c3cccs3)=NN2C(=O)CSc2nc3c(cnn3-c3ccccc3)c(=O)[nH]2)cc1", "note": "(stereo unspecified)", "Potency": "inconclusive [inhibitor, partial curve]"}, {"smiles": "CCn1cc(/C=N/NC(=O)c2cc3c(ccc4ccccc43)o2)c2ccccc21", "Potency": "inconclusive [inhibitor, partial curve, poor fit]"}, {"smiles": "CC1CN(S(=O)(=O)c2cccc(C(=O)OCC(=O)c3cccs3)c2)CC(C)O1", "note": "(stereo unspecified)", "activity change, negative = inhibition": "inactive: -13%"}, {"smiles": "CCn1cc(/C=C2/SC(=S)NC2=O)c(C)n1", "Potency": "active: 17.8 µM"}, {"smiles": "Cc1cc(Nc2ccccc2N2CCOCC2)n2ncnc2n1", "Potency": "active: 17.8 µM"}, {"smiles": "CCOC(=O)CSc1nc2cc3c(cc2cc1CC)OCCO3", "Potency": "inconclusive [inhibitor, single point]"}, {"smiles": "Cc1ccc(N2C(=O)CC(N(O)C3CC(=O)N(c4ccc(C)cc4)C3=O)C2=O)cc1", "note": "(stereo unspecified)", "Potency": "active: 31.6 µM"}, {"smiles": "CCOc1cccc(-c2nnc3sc(-c4ccc(C)cc4)nn23)c1", "activity change, negative = inhibition": "inactive: -9.78%"}, {"smiles": "O=C(c1ccc2c(c1)OCO2)N1CCN=C1SCc1ccccc1", "Potency": "inconclusive [inhibitor, partial curve]"}, {"smiles": "CCOC(=O)C1CCN(c2c(NC3CCCCCCC3)c(=O)c2=O)CC1", "activity change, negative = inhibition": "inactive: -16.2%"}, {"smiles": "CCOc1ccc(Nc2oc(-c3cccs3)nc2C#N)cc1", "Potency": "inconclusive [inhibitor, partial curve]"}, {"smiles": "N=C1C(c2ccccc2)=C(O)C2CCc3ccccc3N12", "note": "(stereo unspecified)", "Potency": "active: 15.8 µM"}, {"smiles": "O=C(NCc1n[nH]c(=S)n1-c1ccccc1)c1ccc(S(=O)(=O)N2CCOCC2)cc1", "activity change, negative = inhibition": "inactive: -14.6%"}, {"smiles": "CCOc1cc(OCC)nc(S(C)(=O)=O)n1", "activity change, negative = inhibition": "inactive: -3.28%"}, {"smiles": "CC[C@@H]1Cn2c(c3nc(-c4cc(Cl)cc(Cl)c4Cl)nc-3n(C)c2=O)N1", "Potency": "inconclusive [inhibitor, partial curve]"}, {"smiles": "O=C(NC1CCCC1)C1CC(=O)N(CCc2ccccc2)C1", "note": "(stereo unspecified)", "Potency": "inconclusive [inhibitor, single point]"}, {"smiles": "CCOc1cc(Cl)c(NC(=O)c2ccco2)cc1OCC", "Potency": "inconclusive [inhibitor, partial curve, poor fit]"}, {"smiles": "CC/C(=C/c1sc2ccccc2[n+]1CC)SC", "activity change, negative = inhibition": "inactive: -6.37%"}, {"smiles": "CC(=O)OC1CC[C@]2(C)C(CC[C@@]3(C)C2C(=O)C=C2C4C(C)C(C)CC[C@@]4(C(=O)O)CCC23C)C1(C)C", "note": "(stereo partly specified)", "activity change, negative = inhibition": "inactive: -0.445%"}, {"smiles": "COc1cc2c(cc1OC)C(=O)NCC(C)(C)O2", "activity change, negative = inhibition": "inactive: -19.2%"}, {"smiles": "Cc1ccc(-c2nnc3ccc(SC(C)C(=O)O)nn23)cc1", "note": "(stereo unspecified)", "Potency": "inconclusive [inhibitor, partial curve]"}, {"smiles": "Cc1ccc(C)n1-c1ccc(C(=O)Nc2ccccc2)cc1", "Potency": "active: 15.8 µM"}, {"smiles": "CCC(Oc1ccc2c(c1)C(=O)CC(C)(C)O2)C(=O)NCCN1CCCCCC1", "note": "(stereo unspecified)", "Potency": "inconclusive [inhibitor, partial curve]"}, {"smiles": "CC(=C/C(=O)O)/C(=C/c1ccccc1)C(=O)O", "activity change, negative = inhibition": "inactive: -14%"}, {"smiles": "COc1ccccc1-c1cc(C(=O)Nc2sc3c(c2C#N)CCC(C)C3)c2ccccc2n1", "note": "(stereo unspecified)", "Potency": "inconclusive [inhibitor, partial curve, poor fit]"}]}]}
